Results as given in article PMC8727043 (Journal of molecular biology, 2020).

Molecular target: His-tagged human proliferating cell nuclear antigen with an N-terminal PKA site (homotrimer) (human, UniProt P12004)
Test: SEC-MALS

UniProt P12004, sequence (P12004 whole entry): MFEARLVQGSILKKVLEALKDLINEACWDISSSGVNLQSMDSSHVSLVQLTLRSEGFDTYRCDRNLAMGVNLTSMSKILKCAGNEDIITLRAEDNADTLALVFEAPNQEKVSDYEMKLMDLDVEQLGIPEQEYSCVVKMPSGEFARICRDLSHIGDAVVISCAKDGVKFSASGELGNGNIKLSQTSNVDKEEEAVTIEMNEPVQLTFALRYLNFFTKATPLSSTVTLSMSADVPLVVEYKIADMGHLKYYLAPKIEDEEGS

B1: His-tagged wild type DNA ligase I (Full-size), not labelled (enzyme)
chain: not shown
stoichiometry N: 1 LigI per PCNA trimer
